Test results as given in PubChem BioAssay (NCI).
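Cultured in 96-well plates, cells were exposed to test compound for 48 hours across five concentrations. Abbreviation: GI50, concentration required for 50% inhibition of growth. TGI: total growth inhibition.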

Test system: NCI-H322M lung
Test: growth of human tumour cells (NCI), 48 h

SMILES | TGI [µM] | GI50 [µM]
O=C(Nc1nn[nH]n1)c1nc(-c2ccccc2)cc(=O)[nH]1 | > 100 | –
C#CCOC(=O)c1ccc(OC(C)=O)cc1 | > 100 | –
O=c1[nH]c(=O)n(C2OC(CO)C(O)C2O)cc1OCCCc1ccccc1 (configuration not stated) | > 100 | –
N#Cc1ccccc1NC(=O)C(=O)C1NC(=S)NC1=O (configuration not stated) | > 100 | –
COc1cc(OC)cc(C2C3=C(COC3=O)Nc3cc(OC)ccc32)c1 (configuration not stated) | > 100 | < 0.01
CCOC(=O)C(Cc1ccc(N(CCCl)CCCl)cc1)NC(=O)C(Cc1ccccc1)NC=O (configuration not stated) | 0.554 | –
O=C(/C=C/C=C/c1ccccc1)c1ccco1 | 58.8 | 19.6
NCCSCCC(=O)O | > 100 | –
Cc1c(C(=O)O)n(C)c(=O)n(C)c1=O | > 100 | –
CC(C)N(Cc1ccc(CN(C(=O)CCl)C(C)C)cc1)C(=O)CCl | 7.26 | 2.36
CCC(C)CC(C)CC(C)/C=C(\C)C1=C(C)CC(C)(O)O1 (configuration not stated) | > 100 | –
COC(=O)Nc1nc2ccccc2[nH]1 | > 100 | –
COc1ccc2oc3c(OC)c(OC)c(OC)cc3c(=O)c2c1 | > 100 | –
O=C1NC(Cc2ccc(O)cc2)C(=O)NC1Cc1ccc(O)cc1 (configuration not stated) | > 100 | –
CSc1nc2nc3c(nc2c(=O)n1C)C(=O)c1ccccc1C3=O | 0.706 | 0.132
CN(C)CC1CCC(CN(C)C)C(=O)C1=O (configuration not stated) | 43.1 | –
CC1=C(C(=O)Nc2ccccc2)C(c2ccccc2Cl)C(C(=O)Nc2ccccc2)=C(C)N1 | > 100 | –
O=C1NC(N2CCOCC2)=N/C1=C\c1ccc(O)cc1 | > 100 | –
CCN(CC)CC1CCCCN1CC(=O)N1CC(C)C(=O)Nc2ccccc21 (configuration not stated) | > 100 | –
Cc1cc(C)c(C#N)c(Sc2nc(C)c([N+](=O)[O-])c(C)c2C#N)n1 | 39.2 | 10.9
Cc1c(C#N)cccc1[C@@H](C)Nc1nnc(C)c2cnc(N3CCOCC3)cc12 | > 100 | 9.61
CC(C)=CCC[C@@H](C)C1=C(O)C(Nc2ccccc2I)=C(C)C(=O)C1=O | > 75 | –
Cc1ccc2nc(NC(=O)C(=O)C(C#N)c3ccc(Cl)cc3)sc2c1 (configuration not stated) | > 50 | –
COC1=CC(=O)N(C)C(O)C1(C#N)OC1OC(CO)C(O)C(O)C1O (configuration not stated) | > 100 | –
CN=C1C=CC(=C(c2ccc(N(C)C)cc2)c2ccc(N(C)C)cc2)C=C1 | 2.66 | 0.374

SMILES | TGI [µM] | GI50 [µM]
N#CC(C(=O)CCCC(=O)Nc1ccc(Cl)cc1Cl)c1ccccc1 (configuration not stated) | > 100 | –
CC(C)Oc1cccc(N2C(Nc3ccccc3)=Nc3ccncc3S2(=O)=O)c1 | > 100 | –
CC1=CCC[C@H]2[C@](C)(CC3=CC(=O)C(SCC(C)C)=CC3=O)[C@@H](C)CC[C@]12C | 32 | –
COC1=CC(C2c3cc4c(cc3[C@@H](Nc3ccc(F)cc3)C3COC(=O)[C@H]23)OCO4)=CC(=O)C1=O (some centres not stated) | > 92.7 | –
Cc1ccc(N=C[N-]c2ccc(C)cc2)cc1.Cc1ccc(N=C[N-]c2ccc(C)cc2)cc1.O=C([O-])C(F)(F)F.O=C([O-])C(F)(F)F.[OH3+].[OH3+].[Rh+2].[Rh+2] | > 100 | 48.7
Cc1ccc(S(=O)(=O)NC(=O)C2=C3SCCN3C(=O)N(S(=O)(=O)c3ccc(C)cc3)C2c2ccccc2)cc1 (configuration not stated) | > 100 | –
COc1ccc(-c2cncn2-c2cc(OC)c(OC)c(OC)c2)cc1 | – | 0.135
O=C(c1ccc(Cl)cc1)N1CCN=C1c1cc2ccccc2c2ccccc12 | 25.6 | –
COC(=O)c1c(-c2cccs2)oc(-c2cccs2)c1C(=O)OC | > 100 | 55.8
Oc1ccc(Oc2cc3c(cc2Oc2ccc(O)cc2)-c2nc-3nc3[nH]c(nc4nc(nc5[nH]c(n2)c2cc(Oc6ccc(O)cc6)c(Oc6ccc(O)cc6)cc52)-c2cc(Oc5ccc(O)cc5)c(Oc5ccc(O)cc5)cc2-4)c2cc(Oc4ccc(O)cc4)c(Oc4ccc(O)cc4)cc32)cc1 | > 100 | –
CC(C)(C)OC(=O)c1ccc(NCC2=C(Br)C(=O)C=CC2=O)cc1 | > 100 | –
S=C1SC(=Nc2ccccc2)C(=Nc2ccccc2)N1c1ccc2ccccc2c1 | > 100 | –
CC1(C)Oc2ccc3c(=O)cc(-c4ccccc4)oc3c2C1C(=O)O (configuration not stated) | > 100 | –
CCOC(=O)c1cc(-c2ccc(-c3cc(C(=O)OCC)c(C#N)c(N)c3C#N)cc2)c(C#N)c(N)c1C#N | > 100 | –
CCCCCCCCOc1ccc(/C=C/C2=[N+](CCO)CCO2)cc1 | 22.4 | –
COc1cc(/C=C/c2ccc(O)c(OC)c2)cc(OC)c1 | > 100 | –
CC(=O)N1CCN(CCNC(=O)n2cc(-c3ccncc3)c(-c3cc(O)cc(Cl)c3)n2)CC1 | 53.9 | 18.1
COc1ccc(Oc2ccccc2N)cc1 | > 100 | –
O=C(O)c1ccccc1C1c2ccccc2Oc2ccccc21 | > 100 | –
CC(CNC(N)=O)NC(N)=O (configuration not stated) | > 100 | –
CCCCC#Cc1c(I)n(C)c(=O)[nH]c1=O | 24.1 | 11.8
CCNc1cc2c3c(c1)CCN3CCC2 | > 10 | –
Clc1ccc(C2=CCN3CC=C(c4ccc(Cl)cc4)C23)cc1 | 30.7 | –
COc1cc2nc(-c3cccs3)nc(Nc3cccc(Cl)c3)c2cc1OC | > 100 | –
COc1ccc(C2=Nc3ccccc3SC(C)C2)cc1OC (configuration not stated) | 79.9 | –

SMILES | TGI [µM] | GI50 [µM]
Cn1cc(C2=C(c3c[nH]c4ccccc34)C(=O)NC2=O)c2ccccc21 | > 9.85 | 2.05
CC(=O)OCC1OC(n2c(C)c(C)c(C)c(C#N)c2=S)C(OC(C)=O)C(OC(C)=O)C1OC(C)=O (configuration not stated) | > 100 | –
Cc1c2ccncc2c(C)c2c1[nH]c1ccc(OCCN(C)C)cc12 | 0.384 | –
Nc1c(S(=O)(=O)O)cc(S(=O)(=O)O)c2ccc(N=Nc3ccc(/C=C/c4ccc(N=Nc5ccc6c(S(=O)(=O)O)cc(S(=O)(=O)O)c(N)c6c5O)cc4S(=O)(=O)O)c(S(=O)(=O)O)c3)c(O)c12 | > 100 | –
COc1ccccc1NC(=O)C1=C(C)NC(C)=C(C(=O)Nc2ccccc2OC)C1/C=C/c1ccccc1 | > 100 | –
CCN(CC)C(=O)CCN1CC1 | > 10 | –
CC(C)CCOC(=O)NC(Nc1ccc(F)cc1)(C(F)(F)F)C(F)(F)F | > 100 | –
COc1ccc(-c2nc(-c3nc4ccc(C)cc4[nH]3)cc3c2[nH]c2ccccc23)cc1 | > 100 | 5.32
C#C[C@@]1(O)[C@@H](CO)O[C@@H](n2cc(I)c3c(N)ncnc32)[C@@H]1O | 17.9 | 0.526
O=C1CSC(c2ccccc2Cl)N1c1nnc(Cn2cnnc2)o1 (configuration not stated) | > 100 | 25.3
CCN(CC)C(=O)Cn1c2c(c3ccccc31)CCCC2 | > 100 | –
Cc1ccc(-c2nc(/C=N/Nc3cc(C)nc4ccc(Cl)cc34)c(C)o2)cc1 | 3.71 | 1.73
ClCc1ccccc1Cn1cnc2ncnc(Cl)c21 | 15.8 | 4.63
NC(N)=NC1C(O)C(O)C(O)C(N=C(N)N)C1O (configuration not stated) | > 100 | –
CC/C(Cc1ccccc1)=C(\c1ccc(OCCN2CCCC2)cc1)c1ccc(OC(=O)NCc2ccccc2)cc1 | 3.97 | 1.91
Clc1cc(Cl)ncn1 | > 100 | –
O=C(OCc1ccccc1)N1CCNCCNCCN(C(=O)OCc2ccccc2)CCNCC1 | 39.5 | –
[N-]=[N+]=NCCCn1c2c(c3ccc([N+](=O)[O-])cc3c1=O)C(=O)c1cc(Br)ccc1-2 | > 100 | > 100
O=C(Nc1ccccc1I(=O)=O)C1CCCCC1 | > 100 | > 100
COc1cc(Oc2nc3cc(F)c(F)cc3nc2-c2ccccc2)cc(OC)c1OC | > 100 | –
O=C(CN(/C=C/C(=O)C(F)(F)F)c1ccc(Cl)cc1)c1ccc(Cl)c(Cl)c1 | 22.9 | 11
O=[N+]([O-])c1ccc(Cl)c(CNc2ncnc3c2ncn3C2CCCCO2)c1 (configuration not stated) | > 100 | –
[N-]=[N+]=NCC(O)Cn1cnc2c(NC(=O)c3ccccc3)ncnc21 (configuration not stated) | > 100 | –
COc1ccc(/C=C/c2c(C(=O)/C=C/c3ccc(C(F)(F)F)cc3)c(C)nc3ccccc23)cc1 | 2.92 | 1.54
Cc1cc(-c2c(F)cc3c4nn([C@H]5CC[C@@H](N(C)C)CC5)c(=O)c-4cn(C4CC4)c3c2F)cc(C)n1 | 5.94 | –
